Reference: PubChem BioAssay (NCI)
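Protocol summary: plate cells (96-well), add compound at 5 concentrations, incubate 48 h, interpolate endpoints linearly. Definition used: TGI = concentration required for complete inhibition of growth.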 Certain results were filed several times, with different values. The other results are left out here. There may be further records. The tests behind the records often covered other concentration ranges, not given here; some values may only mark the edge of a range.

Key:
[1] = test system: HCT-15 colon; assay: growth of human tumour cells (NCI), 48 h
[2] = test system: NCI-H460 lung; assay: growth of human tumour cells (NCI), 48 h

## CN(C)CCCCCNc1c2ccccc2nc2cccc([N+](=O)[O-])c12
[1]
  TGI: 8.7 nM and > 100 nM
[2]
  TGI: 3.1 nM, 0.956 nM, 12.1 nM
